Measured values from publication PMC4336329 (PLoS ONE, 2015).
Hit rate of the full screen: of about 310,000 compounds, about 2,200 (0.71%) showed an effect of 50% or more. Effects have a minus sign here. The list shows a part of the results.

The molecules below were run against human ether-à-go-go-related gene (hERG) potassium channel (human, UniProt Q12809) (assay: primary screen, population patch clamp on CHO cells stably expressing hERG).
Sequence of human ether-à-go-go-related gene (hERG) potassium channel (Q12809 whole entry, looked up): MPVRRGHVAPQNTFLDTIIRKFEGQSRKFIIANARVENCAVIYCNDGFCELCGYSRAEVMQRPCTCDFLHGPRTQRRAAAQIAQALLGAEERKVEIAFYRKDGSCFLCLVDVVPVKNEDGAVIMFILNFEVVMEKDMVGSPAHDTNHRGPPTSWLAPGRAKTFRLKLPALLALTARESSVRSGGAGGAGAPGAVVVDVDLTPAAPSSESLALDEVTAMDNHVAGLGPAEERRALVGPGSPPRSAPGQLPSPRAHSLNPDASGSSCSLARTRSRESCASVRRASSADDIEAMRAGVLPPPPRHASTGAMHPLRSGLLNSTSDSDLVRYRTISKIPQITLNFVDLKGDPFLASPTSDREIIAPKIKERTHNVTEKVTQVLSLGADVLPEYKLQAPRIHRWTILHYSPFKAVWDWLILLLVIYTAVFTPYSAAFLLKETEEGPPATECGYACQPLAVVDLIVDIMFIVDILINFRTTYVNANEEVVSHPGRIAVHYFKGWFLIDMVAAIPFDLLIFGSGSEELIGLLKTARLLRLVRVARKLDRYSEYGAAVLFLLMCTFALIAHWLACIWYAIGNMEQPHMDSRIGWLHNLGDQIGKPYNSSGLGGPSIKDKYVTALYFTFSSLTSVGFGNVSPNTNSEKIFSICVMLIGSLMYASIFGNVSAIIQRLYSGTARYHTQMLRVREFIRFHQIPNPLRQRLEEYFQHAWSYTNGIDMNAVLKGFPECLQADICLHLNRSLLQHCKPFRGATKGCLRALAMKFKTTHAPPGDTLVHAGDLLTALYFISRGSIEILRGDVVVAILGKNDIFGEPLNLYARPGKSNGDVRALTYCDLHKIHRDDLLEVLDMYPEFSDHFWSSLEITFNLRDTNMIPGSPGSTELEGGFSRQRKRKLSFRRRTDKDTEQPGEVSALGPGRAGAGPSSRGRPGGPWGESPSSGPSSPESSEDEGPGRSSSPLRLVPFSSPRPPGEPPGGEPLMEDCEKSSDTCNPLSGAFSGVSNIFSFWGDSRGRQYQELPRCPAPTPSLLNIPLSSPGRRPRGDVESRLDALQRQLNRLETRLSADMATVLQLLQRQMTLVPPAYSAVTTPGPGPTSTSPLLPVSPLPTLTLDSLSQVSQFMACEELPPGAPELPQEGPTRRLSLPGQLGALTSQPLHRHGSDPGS

| Structure (SMILES) | hERG current change (%, negative = inhibition) at 1uM |
| --- | --- |
| NC(=O)C1Cc2ccccc2CN1S(=O)(=O)c1cccs1 (stereo not drawn) | 10.7% |
| CCC(C)(C)NC(=O)CN(CC1CCCO1)C(=O)CNS(=O)(=O)c1ccccc1 (stereo not drawn) | 4.33% |
| Cc1[nH]c(=O)c(C(=O)/C=C/c2ccccc2)c2c1CCCC2 | 3.27% |
| COc1cc(OC)cc(C(=O)Nc2ccc3c(c2)COC3=O)c1 | 8.57% |
| CCCc1ccc2oc(C(=O)N3CCN(CC(=O)NC(C)C)CC3)c(C)c2c1 | -1.69% |
| O=C(Cc1ccc(Cl)cc1Cl)OCC(=O)c1ccc[nH]1 | 13.2% |
| C=CCSc1nnc2c(n1)OC(C)=Nc1ccc(Br)cc1-2 | 14.5% |
| Cc1cc(N2CCN(C)CC2)nc2ccc(NC(=O)c3cccnc3Cl)cc12 | 11.2% |
| N/C(=N\OC(=O)c1cccs1)c1cccc(Br)c1 | 15.1% |
| CC(=O)OCCN(C)c1cc(SC(C)C)c2nonc2c1[N+](=O)[O-] | 1.97% |
| Cc1ccc(C(=O)CS(C)(=O)=O)cc1 | 17.4% |
| O=C(c1ccc(F)cc1)N1CCC(C(=O)N(Cc2ccccc2)c2ccccc2)CC1 | 10.7% |
| CCCc1cc(=O)[nH]c(SCC(=O)c2cc(C)n(-c3cc(C)on3)c2C)n1 | -3.28% |
| CC12CCC(=O)N1C(C(=O)Nc1ccc(S(=O)(=O)N3CCCCC3)cc1)CS2 (stereo not drawn) | 6.36% |
| COc1ccc(C(=O)NC(=S)N2C[C@H]3C[C@H](C2)c2cccc(=O)n2C3)cc1 | -2.32% |
| O=C(N/N=C/c1cccc([N+](=O)[O-])c1)C1CC(=O)N(c2ccc(F)cc2)C1 (stereo not drawn) | -36% |
| COc1ccc([C@@H]2C[C@H](c3ccccc3)Oc3cc(OC)c(OC)c(OC)c32)cc1 | 12.8% |
| COc1ccccc1OC(C)C(=O)Nc1ccccc1C(=O)NCC1CCCO1 (stereo not drawn) | 11.3% |
| O=C(Cc1c(O)c2ccccc2[nH]c1=O)NCc1ccccc1 | 5.58% |
| CCN(CC)S(=O)(=O)c1cccc(-c2csc(C)n2)c1 | 9.84% |
| CCCC1CCc2c(sc(N)c2C(N)=O)C1 (stereo not drawn) | 4.68% |
| COc1ccc(C2=NN(C(=O)CSc3nnc(C)c(=O)n3N)C(c3ccco3)C2)cc1 (stereo not drawn) | -0.0705% |
| CCOC(=O)C1=C(C)NC2=C(C(=O)c3ccccc32)C1c1ccc([N+](=O)[O-])o1 (stereo not drawn) | 3.67% |
| O=C(CC1CCCC1)NNC(=O)c1ccc(Br)cc1 | 12.3% |
